# In all, about 360,000 compounds went through this assay and about 16,000 (4.4%) were called active. This list was built around the results that the source calls inconclusive (neither active nor inactive); the mix of calls is not that of the screen. The call rests on the fitted dose curve; in most records, active means well fitted inhibition curve with a large enough effect; inconclusive means small, poorly fitted or top-dose-only effect; inactive means no such curve, though single readings can be large or run the other way. Where the call is inconclusive, the potency comes from a doubtful curve fit.
# Target: Bromodomain adjacent to zinc finger domain protein 2B (Homo sapiens) (UniProt Q9UIF8)
# Sequence of UniProt Q9UIF8 (Q9UIF8 whole entry, looked up, the tested form may be a part): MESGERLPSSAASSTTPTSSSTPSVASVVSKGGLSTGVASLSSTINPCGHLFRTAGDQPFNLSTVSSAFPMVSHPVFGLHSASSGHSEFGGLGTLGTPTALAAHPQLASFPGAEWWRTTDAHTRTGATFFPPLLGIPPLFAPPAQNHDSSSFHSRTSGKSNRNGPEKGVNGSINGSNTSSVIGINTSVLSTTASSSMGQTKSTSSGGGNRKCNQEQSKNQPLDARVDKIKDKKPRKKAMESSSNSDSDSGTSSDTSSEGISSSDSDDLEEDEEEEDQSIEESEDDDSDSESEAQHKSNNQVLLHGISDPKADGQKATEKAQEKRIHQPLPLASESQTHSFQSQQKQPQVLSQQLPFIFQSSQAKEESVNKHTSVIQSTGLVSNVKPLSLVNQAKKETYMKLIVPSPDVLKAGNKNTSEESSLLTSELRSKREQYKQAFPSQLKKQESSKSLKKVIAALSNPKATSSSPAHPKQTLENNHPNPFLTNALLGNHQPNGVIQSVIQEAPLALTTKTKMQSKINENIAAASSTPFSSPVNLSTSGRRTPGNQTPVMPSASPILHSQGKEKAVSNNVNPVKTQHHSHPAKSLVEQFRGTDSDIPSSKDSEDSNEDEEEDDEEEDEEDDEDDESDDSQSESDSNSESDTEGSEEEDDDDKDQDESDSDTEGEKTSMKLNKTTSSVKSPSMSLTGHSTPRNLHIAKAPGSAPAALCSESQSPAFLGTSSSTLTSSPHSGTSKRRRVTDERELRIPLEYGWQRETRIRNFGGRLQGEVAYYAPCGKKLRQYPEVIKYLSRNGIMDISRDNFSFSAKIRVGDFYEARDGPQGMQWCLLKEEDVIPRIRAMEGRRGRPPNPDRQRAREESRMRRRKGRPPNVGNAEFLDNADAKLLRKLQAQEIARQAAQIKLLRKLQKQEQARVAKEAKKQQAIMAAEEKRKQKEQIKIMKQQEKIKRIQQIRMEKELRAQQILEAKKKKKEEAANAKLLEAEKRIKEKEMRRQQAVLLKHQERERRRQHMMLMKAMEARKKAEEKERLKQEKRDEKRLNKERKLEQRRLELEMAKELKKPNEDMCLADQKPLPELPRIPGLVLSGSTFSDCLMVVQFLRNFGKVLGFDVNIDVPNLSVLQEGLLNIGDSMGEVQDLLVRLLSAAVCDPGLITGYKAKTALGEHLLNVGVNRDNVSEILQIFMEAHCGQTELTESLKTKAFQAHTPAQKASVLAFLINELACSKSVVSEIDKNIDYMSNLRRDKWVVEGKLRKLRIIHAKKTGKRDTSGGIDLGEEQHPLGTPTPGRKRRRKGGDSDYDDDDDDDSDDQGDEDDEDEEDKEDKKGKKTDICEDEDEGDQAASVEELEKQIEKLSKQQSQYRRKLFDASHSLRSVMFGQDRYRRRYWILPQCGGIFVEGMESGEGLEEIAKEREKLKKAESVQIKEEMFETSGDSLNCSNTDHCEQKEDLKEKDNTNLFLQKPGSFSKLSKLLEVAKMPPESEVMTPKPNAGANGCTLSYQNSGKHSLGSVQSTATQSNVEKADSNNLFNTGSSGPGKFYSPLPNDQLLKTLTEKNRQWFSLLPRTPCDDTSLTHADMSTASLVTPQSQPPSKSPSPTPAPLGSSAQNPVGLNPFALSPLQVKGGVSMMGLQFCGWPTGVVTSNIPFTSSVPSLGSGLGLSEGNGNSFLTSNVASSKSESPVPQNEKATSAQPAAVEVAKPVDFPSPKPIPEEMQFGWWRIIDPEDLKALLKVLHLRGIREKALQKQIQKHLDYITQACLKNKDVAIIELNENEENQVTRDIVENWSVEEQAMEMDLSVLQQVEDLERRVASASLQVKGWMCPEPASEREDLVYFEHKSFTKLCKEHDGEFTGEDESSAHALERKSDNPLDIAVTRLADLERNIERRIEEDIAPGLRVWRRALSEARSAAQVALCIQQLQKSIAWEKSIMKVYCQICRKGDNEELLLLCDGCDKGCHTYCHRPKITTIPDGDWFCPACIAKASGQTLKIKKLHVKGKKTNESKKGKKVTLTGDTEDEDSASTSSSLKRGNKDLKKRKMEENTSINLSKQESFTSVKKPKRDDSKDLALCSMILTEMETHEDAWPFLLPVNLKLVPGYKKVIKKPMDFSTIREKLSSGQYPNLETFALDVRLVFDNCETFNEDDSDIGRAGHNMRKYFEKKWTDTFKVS
# Experiment: qHTS Assay for Inhibitors of BAZ2B; further: nearly all actives have a fitted effect of over 60% in size
# Details: AlphaScreen BAZ2B-H3K14Ac peptide displacement; series mostly up to 114 µM
# Summary of the method: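 BAZ2B (50 nM) with biotin-H3(5-23)K14Ac peptide (50 nM) in PBS pH 7.4, 0.01% Tween-20, preformed 30 min, then compound 30 min at room temperature; top concentration 110uM. AlphaScreen streptavidin donor/nickel chelate acceptor beads (10 ug/mL final), 20 min dark, signal read.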
# Potency means the concentration at half of the fitted maximal effect; tags describe the fitted curve by direction and shape.
row,SMILES,Potency
1,Cc1ccc(CN2CC(C(=O)NCCC3=CCCCC3)CC2=O)cc1 (stereo unspecified),inactive
2,O=C(O)C(=O)Nc1nc(-c2ccc3c(c2)OCCO3)cs1,"inconclusive: 56.2 µM [inhibitor, partial curve]"
3,CCOC(=O)N1CCN(C(=O)CSc2nnc(-c3cccc(Cl)c3)o2)CC1,inactive
4,O=C(Nc1scc(-c2ccc(F)cc2)c1C(=O)O)c1ccco1,"inconclusive: 79.4 µM [inhibitor, partial curve]"
5,COc1ccc(-c2nc3sc(CCNC(=O)c4ccc(C(C)(C)C)cc4)c(C)n3n2)cc1,inactive
6,COc1cnc(-c2ccccn2)nc1Oc1ccccc1Cl,active: 50.1 µM
7,Cc1cc(C)cc(NC(=S)Nc2ccccn2)c1,"inconclusive: 70.8 µM [inhibitor, single point]"
8,CCOC(=O)c1c(C)[nH]c(N=Nc2ccc(OC)cc2)c1C,active: 39.8 µM
9,Cc1c(Cl)cccc1NS(=O)(=O)c1cccc2nsnc12,"inconclusive: 79.4 µM [inhibitor, single point]"
10,O=C(c1cccc(Cl)c1)N1CCN(Cc2ccncc2)CC1,active: 50.1 µM
11,CC1=NN(c2ccccc2)C(=O)/C1=C/c1cn(C)c2ccccc12,active: 5.01 µM
12,O=C1NC2(CCCCC2)C(=O)N1/N=C/c1ccc(O)cc1O,"inconclusive: 56.2 µM [inhibitor, partial curve]"
13,CC(=O)Nc1ccc(NC(=O)CSc2nc(N)c(NC(=O)c3ccccc3F)c(=O)[nH]2)cc1,"inconclusive: 50.1 µM [inhibitor, partial curve]"
14,COc1ccc(/C=N/NC(=S)NC2CCS(=O)(=O)C2)cc1OC (stereo unspecified),inactive
15,CCCCCCC(=O)Nc1c2c(nc3ccccc13)N(C)CC2,"inconclusive: 89.1 µM [inhibitor, single point]"
16,COC(=O)[C@@]12CCCN1[C@H](c1ccc(-c3ccc(OC)cc3)c(OC)c1)[C@H]1C(=O)N(C)C(=O)[C@H]12,"inconclusive: 79.4 µM [inhibitor, single point]"
17,O=C1Nc2c(c(=O)[nH]c(=O)n2-c2ccc(F)cc2)C1(NS(=O)(=O)c1ccc(Cl)cc1)C(F)(F)F (stereo unspecified),inactive
18,O=C(COc1ccc(Cl)cc1Cl)N1CCCC1,inactive
19,COc1cc(CN2CCCC(C(=O)c3ccc(SC)cc3)C2)cc(Cl)c1O (stereo unspecified),"inconclusive: 70.8 µM [inhibitor, single point]"
20,COc1ccc(OCCCn2c(C)nc3cc(C)c(C)cc32)cc1,inactive
21,O=C(N/N=C/C(Br)=C/c1ccccc1)c1ccc([N+](=O)[O-])cc1,"inconclusive: 79.4 µM [inhibitor, partial curve]"
22,O=C(c1ccc2nc(-c3ccco3)c(-c3ccco3)nc2c1)N1CCN(c2ncccn2)CC1,"inconclusive: 100 µM [inhibitor, single point]"
23,CCn1c(O)c(N=NC(=O)c2cccs2)c2ccccc21,"inconclusive: 44.7 µM [inhibitor, partial curve]"
24,O=C(OCC#CCSc1nnc(-c2ccc([N+](=O)[O-])cc2)o1)c1cccs1,"inconclusive: 39.8 µM [inhibitor, full curve, poor fit]"
25,CCOC(=O)c1ccc(NC(=O)C(CC)Sc2nncn3c2cc2oc(C)cc23)cc1 (stereo unspecified),"inconclusive: 22.4 µM [inhibitor, full curve]"
26,O=C1OCC2=C1C(c1ccccc1)CC(=O)N2c1ccc(F)cc1 (stereo unspecified),inactive

row,SMILES,Potency
1,CCOC(=O)C1CCN(Cc2ccc(C(=O)OC)cc2)CC1,active: 50.1 µM
2,COC(=O)c1ccc(/C=N/OCC(=O)NC2CCCC(C)C2C)cc1 (stereo unspecified),"inconclusive: 11.2 µM [inhibitor, single point]"
3,O=C(CCN1C(=O)S/C(=C/c2ccccc2)C1=O)Nc1ccc(C(=O)O)c(O)c1,"inconclusive: 89.1 µM [inhibitor, single point]"
4,CNc1nc(C)cc(C)c1S(=O)(=O)c1ccc(Cl)cc1,inactive
5,CCN1CCN(c2ncc3c(n2)CCN(Cc2ccc(C)s2)C3)CC1,"inconclusive: 70.8 µM [inhibitor, single point]"
6,CCN(CC)C(=O)CSC(Nc1ccc(F)cc1)=C(C#N)C#N,"inconclusive: 50.1 µM [inhibitor, partial curve]"
7,Cc1ccccc1OCC(=O)Nc1nnc(S(=O)(=O)N(C)c2ccccc2)s1,"inconclusive: 89.1 µM [inhibitor, single point]"
8,COc1ccccc1N1CCN(C(=O)c2cc3c(=O)n(Cc4cccnc4)ccc3nc2C)CC1,inactive
9,O=C(c1cccc([N+](=O)[O-])c1)N1CCN(c2ccc(Cl)cc2)CC1,"inconclusive: 50.1 µM [inhibitor, partial curve]"
10,Oc1ccc(-c2cccc(-c3ccc(O)cc3)n2)cc1,inactive
11,c1ccc2c(OCCCCN3CCOCC3)cccc2c1,active: 50.1 µM
12,COc1ccc(S(=O)(=O)N2CCCOC2CNC(=O)C(=O)NCCCn2ccnc2)cc1 (stereo unspecified),active: 79.4 µM
13,O=C(CSc1nccn1C1CCCC1)Nc1ccccc1,inactive
14,COC(=O)c1sc2ncccc2c1OCc1ccccc1Cl,"inconclusive: 100 µM [inhibitor, single point]"
15,CN(C)c1ccc(CNn2cnnc2SCc2ccccc2F)cc1,"inconclusive: 35.5 µM [inhibitor, full curve]"
16,COc1ccc(N2CCN(C(=O)c3ccc(N(C)S(=O)(=O)c4ccc(C)cc4)cc3)CC2)cc1,"inconclusive: 31.6 µM [inhibitor, full curve]"
17,COC(=O)c1nc(NC(=O)c2ccc(F)cc2)n[nH]1,"inconclusive: 79.4 µM [inhibitor, single point]"
18,COc1ccc2cc(C(c3nnnn3CCc3ccccc3)N3CCCC(C)C3)c(=O)[nH]c2c1 (stereo unspecified),inactive
19,O=C(Nc1ccc(Cl)cc1C(F)(F)F)c1cc(S(=O)(=O)NCc2ccccc2)ccc1F,inactive
20,CC(=O)N(CCC(c1ccco1)C(C)C)Cc1ccc(Cl)cc1 (stereo unspecified),inactive
21,Cc1cc(C)n(C(=O)C(C(=O)c2ccccc2)C(C)C)n1 (stereo unspecified),inactive
22,c1ccc(Cc2ccc(OCCn3cncn3)cc2)cc1,inactive
23,O=C(O)Cc1c[nH]c2cccc(O)c12,active: 35.5 µM
24,COC(=O)c1cc2oc(C)cc2n1Cc1ccc(Cl)cc1,"inconclusive: 70.8 µM [inhibitor, single point]"
25,C[C@H](NC(=O)N1CCC(Cc2ccccc2)CC1)C(=O)O,"inconclusive: 89.1 µM [inhibitor, single point]"
26,CCOC(=O)c1cc(C#N)c(SCC(N)=O)[nH]c1=O,inactive

row,SMILES,Potency
1,O=C1CCC/C(=N/Nc2ccc(Cl)cc2)C1,active: 44.7 µM
2,O=C(CS(=O)(=O)c1ccccc1)Nc1ccc(Cl)cn1,inactive
3,COc1cc(/C=N/N2CCN(c3ccccc3OC)CC2)ccc1O,"inconclusive: 70.8 µM [inhibitor, single point]"
4,O=C(O)C1CC=CCC1C(=O)Nc1cccc([N+](=O)[O-])c1 (stereo unspecified),active: 89.1 µM
5,CC(CCc1ccccc1)NC(=O)C1CCCN(c2nnc(-n3cccc3)s2)C1 (stereo unspecified),inactive
6,Cn1nc(C(=O)Nc2cccc(C(F)(F)F)c2)c2c1-c1ccccc1S(=O)(=O)C2,inactive
7,COc1ccc(NC(=O)c2ccc(Br)o2)cc1,"inconclusive: 89.1 µM [inhibitor, partial curve, poor fit]"
8,c1ccc2nc3c(nc2c1)CCc1nonc1-3,inactive
9,Cc1cccc(Oc2ccccc2NS(=O)(=O)c2ccc(CCC(=O)O)cc2)c1,"inconclusive: 89.1 µM [inhibitor, single point]"
10,CCOC(=O)C1CCCN(C2=NC(=O)/C(=C/c3ccc(N(C)C)cc3)S2)C1 (stereo unspecified),active: 44.7 µM
11,CCN1CCN(S(=O)(=O)c2ccc(S(=O)(=O)NCC3CCCO3)cc2)CC1 (stereo unspecified),"inconclusive: 89.1 µM [inhibitor, single point]"
12,CCOC(=O)c1c(NC(=O)CSc2nnc(CN3CCOCC3)n2C)sc2c1CCCC2,inactive
13,S=C(c1cn(Cc2ccc(Br)cc2)c2ccccc12)N1CCOCC1,"inconclusive: 31.6 µM [inhibitor, full curve, poor fit]"
14,Cc1c(N/N=C(\C#N)C(=O)c2ccc(Cl)cc2)c(=O)n(-c2ccccc2)n1C,active: 25.1 µM
15,CCc1ccccc1NC(=O)CSc1nccn1C,"inconclusive: 89.1 µM [inhibitor, single point]"
16,CCc1nnc(NC(=O)CSc2ncc(-c3ccccc3)n2CC)s1,"inconclusive: 79.4 µM [inhibitor, single point]"
17,COc1cccc(CSCC(=O)NCCc2ccccc2)c1OC,inactive
18,O=C(CSc1ncccc1C(=O)O)NC12CC3CC(CC(C3)C1)C2,"inconclusive: 89.1 µM [inhibitor, single point]"
19,CCOc1cccc(/C=N/NC(=S)Nc2cc(S(=O)(=O)N3CCOCC3)ccc2N2CCOCC2)c1O,"inconclusive: 7.08 µM [inhibitor, full curve, poor fit]"
20,COc1ccc(N/C=C(\C(C)=O)c2ccc(OC)c(OC)c2)cc1OC,"inconclusive: 79.4 µM [inhibitor, single point]"
21,CCCc1ccc(C(=O)NNc2cccc(C)c2)cc1,"inconclusive: 31.6 µM [inhibitor, partial curve]"
22,COc1cccc(CN2CC(C(=O)N(C)Cc3ccc(C)cc3)CCC2=O)c1 (stereo unspecified),inactive
23,Cc1ccc(-n2nc3c(=O)n(CC(=O)NC4CCCCC4)nc(C)c3c2C)cc1,inactive
24,CCOC(=O)c1[nH]c(C)c(/C(O)=C2\C(=O)C(=O)N(CCN3CCOCC3)C2c2ccco2)c1C (stereo unspecified),"inconclusive: 89.1 µM [inhibitor, single point]"

# — PubChem BioAssay AID504333 (National Center for Advancing Translational Sciences (NCATS), 2011)
